Inhibition data for 104 compounds are collected here from PubChem BioAssay AID434955 (Southern Research Specialized Biocontainment Screening …, 2010).

The list shows a part of the results. The main result of the screen is listed elsewhere. These columns were measured beside it and carry no call. Most of these compounds were active or inconclusive in the main read-out, so they are no random draw.

This experiment in a line: beta-lactam sensitization of Mtb H37Rv, H37Rv (AID 434955).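 Note: growth measured after seven days incubation then overnight dye step; 0% = bacteria only wells and 100% = bacteria with antibiotic.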 The note with it: M. tuberculosis H37Rv growth with meropenem, percent inhibition; measured here: primary screen without meropenem; at 25 µM.
A word on the inhibition: it is the drop in the measured response relative to a control, in per cent. Turning to `COc1cc(C2SCC(=O)Nc3c2c(=O)[nH]n3C2CCCCCC2)cc(OC)c1OC` (centres undefined), the inhibition was -10.7%. `COc1ccccc1N1CCN(C(=O)CNC(=O)Cn2cnc3sc(C)c(C)c3c2=O)CC1`: the inhibition was -1.94%. The same measure for `CC(C)Cc1ccc(CN2CCCC(NC(=O)Cn3cnnn3)C2)cc1` (centres undefined): 11.5%; for `COc1ccc(/C=C2/CCCC(C(=O)C(F)(F)F)=C2O)cc1OC`: 3.18%. For `Cn1ccc(C(=O)Nc2sc3c(c2C(N)=O)CCCCC3)n1`, the inhibition was 11.6%. With `O=C(CC12CC3CC(CC(C3)C1)C2)NCc1ccc(F)cc1` the figure was 2.73%. Consider `CN(C)S(=O)(=O)Nc1ccc(C(=O)O)cc1`, for which the inhibition was -3.8%. As for `O=C(CCCN1C(=O)c2cccnc2Oc2ccc(Cl)cc21)N1CCCCC1`, the inhibition is 3.24%. The same measure for `CCc1ccc(NC(=S)Nc2ccc(S(=O)(=O)Nc3ncccn3)cc2)cc1`: 9.99%.

With `COc1ccccc1N1CCN(S(=O)(=O)c2ccc3c(c2)CC(C)N3C(C)=O)CC1` (centres undefined), the inhibition stood at 2.7%. Take `COC(=O)c1ccc(C2NC(C(=O)O)CS2)cc1` (centres undefined): the inhibition was -10.2%. With `O=C(CN1C(=O)COc2ccccc2C1=O)c1ccc2c(c1)OCCO2` the figure was 4.6%; with `COc1ccc(CN2C(=O)c3cccnc3C2=O)cc1S(=O)(=O)N1CCOc2ccccc21`, 2.04%; with `CCSc1nnc(NC(=O)CSc2nccn2-c2cccc(C)c2)s1`, 36.4%. With `O=C(CCCC(=O)OCC(=O)c1ccc(Cl)cc1)NC1CCCCC1`, the inhibition was found to be 30.8%. On to `O=C(c1ccc([N+](=O)[O-])o1)N(Cc1nnc(-c2ccccc2Cl)o1)C1CC1`, for which the inhibition is 100%. As to `CCCCn1c(SCC(=O)Nc2nnc(C)s2)nc2c1c(=O)n(C)c(=O)n2C`, the inhibition came out at 8.37%. For the compound `Cc1nc(Nc2cccc(Cl)c2)c2oc3ccccc3c2n1`, the inhibition was determined as 77.2%. The same measure for `O=C(Cc1ccc(Br)cc1)Nc1ccc(S(=O)(=O)N2CCCC2)cc1`: 12.9%; for `Cc1ccc(C(C)C)c(OCCNC(=S)Nc2cccc3ccccc23)c1`: -1.19%.

On to `CC1CCN(C(=S)NC(=O)c2ccccc2)CC1`, for which the inhibition was found to be 39.6%. With `O=C(NC1CCN(C(=O)NCc2ccccc2)CC1)c1ccco1`, the inhibition stood at 1.68%. The same measure for `O=C(CCCN1CCc2[nH]c3ccc(F)cc3c2C1)c1ccc(F)cc1`: -2.87%. The same measure for `COc1ccc(C(=O)N2CCCC(Nc3ccc(F)cc3)C2)cc1F` (centres undefined): 6.67%; for `CCCCCCCN(C(=O)CCl)c1ccccc1C`: 20.3%. The same measure for `Cc1ccc(C)c(N2CCN(C(=O)c3ccc(CSc4nc5ccncc5[nH]4)cc3)CC2)c1`: 8.74%; for `O=C(OCC(=O)c1ccc[nH]1)C1=COCCO1`: 20.7%; for `CSc1nnc(N2C(=O)C(O)=C(C(=O)c3ccco3)C2c2cccc(Cl)c2)s1` (centres undefined): 4.57%. In the case of `CCOc1ccc(-c2nc(-c3ccccc3C)no2)cc1`, the inhibition came to 26.5%.

For the compound `Cc1ccc(F)cc1NC(=O)CCc1c(C)nn(-c2ccc(N3CCCCC3)nn2)c1C`, the inhibition came to 1.74%.

Consider `Cc1ccc(N2CCN(S(=O)(=O)c3ccc4c(c3)n(C)c(=O)c(=O)n4C)CC2C)cc1` (centres undefined), for which the inhibition came to 3.45%. As for `CC(=O)Nc1ccc(S(=O)(=O)N2CCN(c3cc4c(cc3[N+](=O)[O-])n(C)c(=O)n4C)CC2)cc1`, the inhibition is -2.09%. With `Cc1ccc(N/N=C/c2cccnc2)cc1` the figure was 93.6%.

As for `Cc1cc(NC(=O)NC(=O)c2ccccc2F)no1`, the inhibition was -0.61%.

Take `O=C(CSc1nnc(CNC(=O)c2ccccc2)o1)NCc1ccc(F)cc1`: the inhibition was 4.57%. Turning to `CC(=O)N1c2ccc(S(=O)(=O)N3CCCC3C(=O)Nc3cccc(F)c3)cc2CC1C` (centres undefined), the inhibition was -10.3%.

Regarding `CN1CCN(CC(=O)N2CCn3c4c(c5cc(C6CCCCC6)ccc53)CCCC42)CC1` (centres undefined), the inhibition is 100%. With `COc1ccccc1NC(=O)c1oc2ccccc2c1NC(=O)C1CC1` the figure was 1.99%; with `CCN(C(=O)C1CCCN(c2nc(-c3ccc(OC)cc3)no2)C1)c1ccc(OC)cc1` (centres undefined), -3%; with `COc1ccc(NS(=O)(=O)c2cc(NC(=O)c3ccc(C)o3)ccc2N2CCCCC2)cc1`, 35.8%. With `Cc1ccc(NC(=O)CSc2nnc(N)s2)cc1S(=O)(=O)N1CCCCC1` the figure was 6.53%; with `Cc1ccc(S(=O)(=O)N(C)C)cc1NC(=O)COC(=O)c1c(C)noc1C`, 0.61%; with `COCCNC(=O)COc1ccc(Oc2ccccc2)cc1`, -1.45%. The same measure for `CC(=O)N1c2ccc(S(=O)(=O)N3CCCC3C(=O)NCc3ccccc3Cl)cc2CC1C` (centres undefined): 4.82%; for `O=C1C=C(c2ccc(O)cc2)C[C@@H](c2ccc(Cl)cc2)C1`: 81.7%; for `CCOc1cc(/C=N\NC(=O)c2ccc(NC(=O)C(C)(C)C)cc2)ccc1OC(=O)c1ccc(C)cc1`: 1.15%. For `CC1CCCN(S(=O)(=O)c2ccc3c(c2)C(C)(C)C(=O)N3C)C1` (centres undefined), the inhibition was -10.4%. Turning to `CCOc1ccc(-c2csc(NC(=O)CSC3=NC(=O)CN3C(C)=O)n2)c2ccccc12`, the inhibition amounted to 5.07%.

Regarding `CCOC(=O)C1CCCN(C2CC(=O)N(c3cccc(C)c3)C2=O)C1` (centres undefined), the inhibition was 1.59%. The same measure for `CCCc1cc(C(=O)Cc2ccccn2)c(O)cc1O`: 10%; for `O=c1c2ccccc2nnn1CSc1ccc2ccccc2n1`: -1.57%. `O=C(CCc1ccccc1)N/N=C\C1CC=CCC1` (centres undefined): the inhibition was determined as 7.03%. With `COc1cccc(-n2c(=O)c3cc(OC)c(OC)cc3n(CC(=O)Nc3cc(C)[nH]n3)c2=O)c1` the figure was -1.09%. Consider `Cc1cc(C)n2nc(SCC#N)nc2n1`, for which the inhibition was -8.43%. The same measure for `CCOC(=O)C1=NN(c2ccccc2)C2=NC(C)=C(C(=O)OC)C(c3cccs3)N12` (centres undefined): 7.43%. The same measure for `CC(=O)NC(=S)Nc1ccc(NC(=O)c2cccs2)cc1`: 11.5%; for `Cc1ccc2cc(CCl)c(Cl)nc2c1`: 3.67%.

In the case of `O=c1c(N=Nc2ccc(O)cc2)c(-c2ccccc2)[nH]n1-c1ccc([N+](=O)[O-])cc1`, the inhibition stood at 1.6%. For `CC(C)(C)c1ccc(C(=O)NCc2nnc(SCC(=O)NC3CCCCC3)o2)cc1`, the inhibition came out at 1.88%. For the compound `O=C(CSc1nc2ccccc2c(=O)n1-c1ccc(F)cc1)Nc1cc(S(=O)(=O)N2CCOCC2)ccc1Cl`, the inhibition was -8.66%.

Consider `Cc1cccc2sc(NC(=O)CSc3nnnn3C)nc12`, for which the inhibition was 0.43%. The same measure for `CCCOP(=O)(c1ccc(N(C)C)cc1)C(O)c1ccc(Cl)cc1` (centres undefined): 5.58%; for `CCOc1cc2[nH]c(=S)n(Cc3ccc(C(=O)NCCOC)cc3)c(=O)c2cc1OCC`: 9.7%.

On to `Cc1cc(C)nc(NC(=O)CN2C(=O)c3ccccc3C2=O)n1`, for which the inhibition is -6.37%. With `CN(C(=O)CSc1ccncc1)C1CCCN(Cc2ccccc2F)C1` (centres undefined) the figure was 0.19%. Turning to `CC(=O)Nc1ccc(S(=O)(=O)Nc2cccc3cccnc23)cc1`, the inhibition was 45.2%. The same measure for `CCCc1nc2scc(-c3ccccc3)c2c(=O)n1N`: -5.6%. With `CCOC(=O)c1c(NC(=O)CN2C(=O)NC3(CCCCCC3)C2=O)sc(C)c1-c1ccc(C)cc1` the figure was 28%; with `COCCCNc1nc(SCc2ccccc2)nc2sc3c(c12)CCC3`, 22.8%. Take `O=c1cc(C(F)(F)F)nc(SCc2cccc3ccccc23)[nH]1`: the inhibition was -8.22%. With `O=C(c1cccc(C(=O)N2CCN(c3ccccc3)CC2)c1)N1CCN(c2ccccc2)CC1` the figure was 2.4%; with `CCN(CC)C(=O)C1CCCN(c2ccc([N+](=O)[O-])cc2/C=N/NC(=O)c2cccc(O)c2)C1` (centres undefined), 33.6%; with `CC(=O)c1sc(NC(=O)CCS(=O)(=O)c2ccccc2)nc1C`, 2.82%. Take `O=C(Nc1cccc(Br)c1)c1ccc2snnc2c1`: the inhibition was -7.02%. Turning to `CC(Sc1cccc[n+]1[O-])C(=O)Nc1cccc(S(=O)(=O)N2CCOCC2)c1` (centres undefined), the inhibition stood at 59.5%.

For the compound `CCOc1ccc(CCNC(=O)CCc2nnc3ccc(N4CCOCC4)nn23)cc1`, the inhibition is -2.27%. The same measure for `COC(=O)Nc1ccc(S(=O)(=O)N2CCC(Cc3ccccc3)CC2)cc1`: -8.89%. Turning to `Cc1cc(C)nc(SCC(=O)OCC(=O)Nc2nc3ccccc3s2)n1`, the inhibition was found to be 8.96%. Consider `COc1ccc(NC(=O)CSc2nc(N)c(NC(=O)c3ccccc3F)c(=O)[nH]2)cc1`, for which the inhibition turned out to be 2.18%. `Cc1ccc(S(=O)(=O)N2CCOCC2)cc1C(=O)NCC1CCCO1` (centres undefined): the inhibition was -3.47%. Regarding `COc1cc(OC)cc(C(=O)Nc2ccccc2N2CCOCC2)c1`, the inhibition is -0.09%. Consider `CCN1CCN(C(=O)c2cc3cc(Cl)ccc3[nH]2)CC1`, for which the inhibition stood at 8.44%. Turning to `COc1ccc(CCN2CC(C(=O)N3CCCCCC3)CCC2=O)cc1` (centres undefined), the inhibition was -3.42%. `CCOC(=O)C1CCN(c2c(NCCCN(CC)c3ccccc3)c(=O)c2=O)CC1`: the inhibition is -3.6%. The same measure for `Cn1c(=O)c2c(nc(CN3CCN(C(=O)c4ccco4)CC3)n2Cc2ccc(Cl)cc2)n(C)c1=O`: -1.33%; for `CCOC(=O)c1[nH]c(C)c(C(=O)NCc2ccc(OC)cc2)c1C`: -4%; for `Cc1ccc(Cl)cc1N1CCN(S(=O)(=O)c2c(C)[nH]c(C)c2C(=O)N2CCCC2)CC1`: 3.04%. The same measure for `COc1cc(-c2ccc3sc(-c4ccsc4)c(C#CCO)c3c2)cc(OC)c1OC`: 92%; for `CC(C)(Cc1ccccc1)NC(=O)C(=O)c1cn(CC(=O)N2CCOCC2)c2ccccc12`: 4.2%; for `Cc1ccc(SCC(=O)NC2CC2)cc1`: 0.27%.

Take `CCN(CC)CCCNC(=O)c1cn(C)c2ccc(S(=O)(=O)N(C)C)cc2c1=O`: the inhibition was -5.54%. With `CSc1ncccc1C(=O)Nc1nc2ccc(Oc3ccccc3)cc2s1` the figure was 37.5%; with `COc1ccc(N2C(=O)NC(=O)/C(=C/c3cccc(OC(=O)c4cccs4)c3)C2=O)cc1Cl`, 9.67%. With `COc1ccc(Oc2cc(NC(=O)c3nn(C)cc3[N+](=O)[O-])cc([N+](=O)[O-])c2)cc1` the figure was 6.62%; with `O=C(CSc1ccc2nnc(-c3cccnc3)n2n1)Nc1cccc(F)c1`, -0.9%; with `CCC1CCCCN1CCCNC(=O)CC1Oc2ccc(C)cc2NC1=O` (centres undefined), -6.87%. Turning to `Cc1ccc(Cl)cc1N1CCN(C(=O)C2CCC(=O)N(C3CCCCCC3)C2)CC1` (centres undefined), the inhibition is 98.3%. As to `COCCNC(C(=O)Nc1ccc(C)cc1[N+](=O)[O-])c1ccccc1` (centres undefined), the inhibition turned out to be 8.78%. The same measure for `Cc1cc2n(n1)SC(Nc1ccc(F)c(Cl)c1)N2` (centres undefined): -14.2%; for `COc1cc(NC(=O)c2cccc(Cl)c2)c(OC)cc1NC(=O)CN1CCCCC1`: -1.94%. With `CCc1ccc(NC(=O)c2c(Cl)nc(C)c(Cl)c2C)cc1` the figure was 6.49%. The same measure for `COc1cccc(-c2cc(C(=O)N3CC4(C)CC3CC(C)(C)C4)no2)c1` (centres undefined): 79.9%. For `Cc1ccc(OCCN(C)C(=O)c2cc(COc3ccc(F)cc3F)on2)cc1`, the inhibition is 11.7%.

On to `Cc1nn(Cc2ccc(C(=O)N3CCN(C(=O)c4ccco4)CC3)o2)c(C)c1[N+](=O)[O-]`, for which the inhibition worked out at 3.29%.
